Hit rate of the full screen: of about 310,000 compounds, about 14,000 (4.5%) showed an effect of 50% or more. The effect is printed as a negative number. Some of the results follow.
Each molecule was assayed against human ether-à-go-go-related gene (hERG) potassium channel (human, UniProt Q12809) (assay: primary screen, population patch clamp on CHO cells stably expressing hERG).
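Also: peak tail current of the secondary pulse compared with the same well before compound.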

Chain of human ether-à-go-go-related gene (hERG) potassium channel (Q12809 whole entry, looked up): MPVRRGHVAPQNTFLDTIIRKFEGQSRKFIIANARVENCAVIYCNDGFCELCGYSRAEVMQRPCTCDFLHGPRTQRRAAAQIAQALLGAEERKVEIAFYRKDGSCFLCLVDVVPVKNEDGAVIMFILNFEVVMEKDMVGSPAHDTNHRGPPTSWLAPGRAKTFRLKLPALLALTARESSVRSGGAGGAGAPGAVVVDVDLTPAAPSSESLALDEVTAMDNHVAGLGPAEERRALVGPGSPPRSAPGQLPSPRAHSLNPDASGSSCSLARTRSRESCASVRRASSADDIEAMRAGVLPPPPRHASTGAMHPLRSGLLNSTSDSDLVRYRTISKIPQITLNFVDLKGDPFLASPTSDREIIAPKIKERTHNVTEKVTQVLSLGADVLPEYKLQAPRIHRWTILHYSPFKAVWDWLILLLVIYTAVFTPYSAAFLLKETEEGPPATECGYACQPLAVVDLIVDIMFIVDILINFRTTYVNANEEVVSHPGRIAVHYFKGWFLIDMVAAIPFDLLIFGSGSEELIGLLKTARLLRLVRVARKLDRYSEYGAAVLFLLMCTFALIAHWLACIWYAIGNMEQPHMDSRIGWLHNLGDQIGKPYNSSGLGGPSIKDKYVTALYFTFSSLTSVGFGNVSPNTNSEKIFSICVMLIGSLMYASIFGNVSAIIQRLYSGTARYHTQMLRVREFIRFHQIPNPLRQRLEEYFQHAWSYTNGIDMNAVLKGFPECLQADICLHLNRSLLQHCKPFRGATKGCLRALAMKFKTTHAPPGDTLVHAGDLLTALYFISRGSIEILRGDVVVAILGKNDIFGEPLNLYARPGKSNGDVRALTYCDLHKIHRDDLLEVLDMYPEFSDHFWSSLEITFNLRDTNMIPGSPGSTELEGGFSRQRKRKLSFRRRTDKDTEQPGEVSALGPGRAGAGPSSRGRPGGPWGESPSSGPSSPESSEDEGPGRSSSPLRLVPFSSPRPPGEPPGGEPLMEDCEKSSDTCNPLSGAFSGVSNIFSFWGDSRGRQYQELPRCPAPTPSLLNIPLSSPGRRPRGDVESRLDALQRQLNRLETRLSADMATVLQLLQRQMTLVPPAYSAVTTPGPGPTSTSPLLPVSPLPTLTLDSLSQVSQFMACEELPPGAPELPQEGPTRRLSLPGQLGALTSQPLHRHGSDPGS

SMILES	hERG current change (%, negative = inhibition) at 10uM [%]
Cc1nn(C)c(C)c1CN(C(=O)CCc1nnc(Cc2c[nH]c3ccccc23)o1)C(C)C	-0.0383
COc1cc(NC(=O)c2ccccc2)c(OC)cc1NC(=O)Cc1cccs1	7.34
CN(Cc1ccccc1)S(=O)(=O)c1cn(C)cn1	-3.93
Cc1occc1-c1nnc(SCC(=O)Nc2nc(C(C)(C)C)cs2)o1	-4.25
COCCn1c(=NC(=O)c2cccs2)sc2cc(NC(C)=O)ccc21	-8.04
Cc1noc(C)c1S(=O)(=O)Nc1ccc(C(=O)N2CCCCC2)cc1	-2.71
Cc1c(C(=O)N2CCC3(CC2)OCCO3)sc2ncnc(N3CCc4ccccc4C3)c12	-33.7
C[C@@H]1C(=O)O[C@H]2C[C@@]34[C@H]5C[C@@H](C(C)(C)C)[C@]36[C@@H](OC(=O)[C@@H]6O)O[C@@]4(C(=O)O5)[C@]21O	21
COc1ccc(C(C)NC(=O)c2ccncc2)cc1 (centres unmarked)	10.6
Cc1ccc(NC(=O)OCc2cn(-c3ccc(Cl)cc3)nn2)cc1	-14.3
Cc1c(NC(=O)CSc2nnc3sc4ccccc4n23)c(=O)n(-c2ccccc2)n1C	6.99
Cc1ccccc1NC(=O)c1ccccc1NC(=O)Cc1cccc2ccccc12	16.6
O=C(O)c1ccc(Cl)cc1NC(=O)C1CCCO1 (centres unmarked)	-2.58
COc1ccc(NC(=O)C(NC(=O)c2ccc(C)cc2)c2ccccc2)cc1 (centres unmarked)	14.3
CCCNC(=O)c1c[nH]c2ccc(S(=O)(=O)N(C)c3ccc(OCC)cc3)cc2c1=O	12
C=CCc1c(C)nc2ccc(C(=O)OCC)cc2c1Cl	18.3
N#Cc1cc([N+](=O)[O-])ccc1NC(=O)CSc1n[nH]c(=O)n1C1CC1	1.42
Cn1nc(C(F)(F)F)c(C#N)c1N1CCN(c2ccccn2)CC1	-28.7
COc1ccc2c(c1)N1CCN=C1N2C.Cl	-4.02
CCOC(=O)c1cc(-c2nnc(-c3cc(OC)c(OC)c(OC)c3)o2)c(C)nc1C	-3.04
CCOC(=O)Cc1csc(NC(=O)c2c(-c3ccccc3)noc2C)n1	-10.1
CCOC(=O)c1nnn2c1nc(N1CCN(c3ccccc3)CC1)c1ccccc12	-62.4
CCOC(=O)C1CCCN(C/C=C/c2ccccc2)C1 (centres unmarked)	-24.5
